Results: the RNAGym collection of RNA variant scans (doi:10.7554/elife.90254)
The source gives no read counts; variants with many changes may rest on few reads.

B1: LINE1-full (parent)
chain: UACGUAGGUGGUUUUCCCCUGAUAGUGCUAAGGGGGCCUGGAAGUUUGGACUGGGCAGAGCUCAACACAGCGUGGCAAAGUGGCUGUGGCUAGACUGCCUCUCUGGAUUCCUCGUCACUCAGCAGGGCAUCUCUGAGAGAAAUGCC

Variants of: B1
Test: self-cleavage, relative activity (ratio to wild type); higher = more cleavage; in vitro, sequencing; the parent is a self-cleaving ribozyme

Row | Variant | self-cleavage
1 | A42G G82C C133G | 1.69
2 | G41A U85C U100C | 0.03
3 | G40A U47A A94G U96A | 0.06
4 | U39C A124U A136U | 0.43
5 | A42G A67G C76U U100A A136G A141G | 0.93
6 | U39A A94G U96A | 0.11
7 | A42G A77G U87C | 0
8 | U39C A64G A79G A138G C145U | 0.57
9 | A42G G75A A107G | 2.24
10 | G40A A59G U100C U102C | 0.05
11 | U39A C56U A142G | 0.33
12 | A42C U45G U52A G82U | 0.94
13 | A42G A57G U104C | 2.42
14 | U39A U112C C113U U132A | 0.61
15 | U39A U81G G88U U102C A124G A138U | 0.07
16 | A42U G60C U119G A124G | 0
17 | U39C U45A U100C A142G | 2.24
18 | U39C U130C U143A | 0.99
19 | U39C U52A G72A | 0.05
20 | U39A A124G U130C | 2.47
21 | A42G A57U A77G A129U | 0.29
22 | U39A U104G A141G | 1.2
23 | U39A U46A U52C | 1.51
24 | A42G A79G U91A | 0.77

Row | Variant | self-cleavage
25 | U39A A77U U104C A140G | 1.03
26 | U39A G72A A79U A124G U143C | 1.23
27 | U39C U73C A140G | 0
28 | A42U A79G G144U | 1.41
29 | U39C A65G A77U | 0.09
30 | U39C A57G A92G | 0
31 | U39A A107G U119C U130C | 0.4
32 | A42G A59G A129G U143C | 0.07
33 | A42G G83A U85A | 0.09
34 | A42G A64G G126A | 0.07
35 | U39C U102C U115G C133U | 0.66
36 | U39A U96C A141G | 0
37 | G41A A42G A117U A129U A136U A140G | 1.55
38 | U39C U104C A124U | 1.44
39 | U39A U81A A142U | 1.6
40 | G40A A107G A124G | 0.77
41 | U39C G53A A129U U134G | 1.22
42 | U39C A69U A78G | 0.07
43 | U39C A77G U85C G122A | 0.11
44 | G40A A69U U112C G122A A138G | 0.05
45 | U39C A50G A65U | 0.17
46 | U39C A64G A67U G74A A77G A117U A124U A129C | 0
47 | U39C U46A U143A | 1.48
48 | U39C A64U A124U A140G | 0.31

Row | Variant | self-cleavage
49 | A42G A78G C111U | 1.02
50 | A42G A78G U104A A138U | 1.07
51 | A42G A121C A140G | 1.7
52 | U39G A94G U112C C123U A136U | 0.42
53 | A42G U115C C120A | 1.45
54 | A42G U81C G125U | 1.19
55 | A42G G74A A79G U115C | 2.63
56 | A42G U81C A140G | 2.09
57 | A42G U45C G105U U112C A117G | 2.16
58 | U39A A67G C123U | 0.62
59 | U39C A64U U134C A141G | 0.2
60 | G40A C66U U130C | 0
61 | A42U A77U U115C U143C | 1.24
62 | A42G U45G G60A A77U G93C A129G | 0.04
63 | G41U A64G G82A | 0.14
64 | U39C A121U A136U | 0.98
65 | U39C U46C G54C C76U | 0.96
66 | U39A A50G A69G A79G A142G | 0
67 | G41U U47C U102C | 1.11
68 | A42G A65G A78G G88A | 0.1
69 | A42G C61A U73A A121C U134C | 0.05
70 | U39C A124U U130C U134A | 0.75
71 | A42G A64G A121U A141G | 0.42
72 | A42G A78G U108C U115C | 1.84

Row | Variant | self-cleavage
73 | A42G U52A U62C | 0.06
74 | U39A A64U U130C | 0.43
75 | A42G G82A U143A | 1.48
76 | U39C U109C A136G A140G U143A | 0.62
77 | A42U A121G A141G | 1.33
78 | U39A A124U U134G | 1.75
79 | G40A U47A U102C | 0.71
80 | A42G U47C U87A | 0.08
81 | G41A C51U U52C A59G | 0.07
82 | A42G G86A A129C | 0
83 | A42G A79U G97A U104A | 0.11
84 | U39C U52C U109C | 0.24
85 | A42G A59G A92U U112C U134C | 0
86 | A42C U46C A92U A107U U119A | 0.58
87 | U39C U96C U109A | 0
88 | U39C U62C U100C U112A | 0
89 | A42G A67U A77C | 0.09
90 | U39C A77G C118A A142G | 1.5
91 | U39C A94G A124G | 0
92 | A42G U52C G122A | 1.73
93 | A42G A57U U102C | 0.22
94 | U39C A50C A142G | 1.15
95 | A42C U62C A69U A94G A140G | 0
96 | A42G U47A A67G U112C U143C | 0.26

Row | Variant | self-cleavage
97 | A42G G72A U130A | 1.23
98 | A42G A121U U130C A141G | 1.7
99 | A42U A57G A142G | 0.61
100 | G40A A59U G72A A121U A141U | 0.55
101 | U39A A129U A142G | 2.51
102 | U39C U96C U134A | 0
103 | A42G A57G G122U | 0.98
104 | U39C A50U U91A | 0.21
105 | U39A G49U U100C | 1.21
106 | U39A C56U A78U A79U G88U | 0.04
107 | A42G U85C U96A | 0.25
108 | U39A U62A A69G U108C A117U | 0
109 | U39A U73A A129C | 1.93
110 | U39A U96G U100C C103U | 0
111 | A42G A124U U132A | 2.34
112 | A42U A59G A141G | 0.05
113 | A42G U96A U112C A136G | 0.36
114 | U39A U47A U85C U115C | 0.09
115 | U39C A59G U100C A121G C128A | 0.3
116 | U39A U112C C113U G127U A141G | 1.59
117 | U39C A78G U108C | 1.15
118 | U39A G54U A138G | 0.3
119 | G40U A64G U73C | 1.1
120 | U39A A64G U104C | 0

Row | Variant | self-cleavage
121 | U39C G83A U112C A124G | 0.23
122 | U39C U87C U143C | 0.23
123 | G40C U115C A136G | 1.11
124 | A42C A43G U62C A141G | 0
125 | G41A A42G U108C G114A | 1.41
126 | G40A A94G A107G | 0.16
127 | A42G U91A U112C | 0.68
128 | U39A A67U A121G | 0.22
129 | U39A A94G A142G | 0.17
130 | A42G U45C U132C | 1.97
131 | U39A A78U G139A | 2.59
132 | U39G A43G U45A C110U U143A | 0.37
133 | G40A U112A A124G | 1.12
134 | U39C U62C A78G U96A | 0.04
135 | A42U A79G C101A | 0.91
136 | U39C A69G U96A A141G | 0
137 | A42G A79G U112A U130C A141G | 0.77
138 | A42U A94U A117G U132A | 0.37
139 | A42G A64U U96C | 0.12
140 | U39C C145A C146U | 0.67
141 | U39G A57G U132C | 1.02
142 | U39C A67G G83A U87C A107U | 1.88
143 | U39A A59G A69U C90U | 0.05
144 | U39A A77U A78G C145U | 0.77

Row | Variant | self-cleavage
145 | G40A G58U A121U U132C | 0.03
146 | A42G A59G U119C | 0.14
147 | A42G A59G A69G G125A | 0.09
148 | U39A U45C A57G U85G U102A | 0
149 | U39G U46C A64U U104C | 0.45
150 | A42G U52A U96C | 0.09
151 | U39A A57G G60A A69C U119A A121C | 0
152 | G40A U46C A136G A140G | 1.1
153 | U39A U45C C63U | 0.26
154 | U39A A65G A77G U91A A141G | 0.03
155 | A42G A78U A79G | 2.26
156 | A42G U100C A136G | 1.93
157 | A42G U62C U115C G122U | 0.03
158 | U39C A77G U112C U134C | 1.31
159 | A42C U73G U96A | 0
160 | U39G A79G U81C A121U | 0.3
161 | A42G U47G U62C U130C | 0
162 | U39A U81G A94G A124G | 0.37
163 | A42G U46C C133A A140G | 1.58
164 | A42G G97A U134A | 0.07
165 | U39C A92G U104A | 0
166 | U39C U73A A141U | 1.36
167 | U39C A57G C99A | 0.33
